# Data published in ChEMBL document CHEMBL4888484, “Replenishing the malaria drug discovery pipeline: Screening and hit evaluation of the MMV Hit Generation Library 1 (HGL1) against asexual blood stage Plasmodium falciparum ,using a nano luciferase reporter read-out” (2022).
# The whole screen tested about 150,000 compounds, of which about 540 (0.36%) showed an effect of 50% or more. Some of the results follow.
# Test system: Plasmodium falciparum
# Experiment: Primary screen in NF54 nanoGlo assay, in single point, at 2uM, 72h; a lower Z score goes with more inhibition
# Assay type: functional, Erythrocyte
# Settings: timepoint 72 hour
SMILES,% Inhibition,Z score
COc1ccc(Cl)cc1C(=O)NC1CCN(c2ncnc3c2CCCC3)CC1,-6%,0.8
O=C1NCCCN(C(=O)Nc2ccccc2)[C@H]1Cc1ccccc1,1%,-0.19
C[C@@H](c1nnnn1C1CCCCC1)N(C)Cc1cccc(N(C)C)c1,-7%,1.18
CCNC(=O)N1CCN(C(=O)c2ccc3c(c2)ncn3-c2cccc(C)c2)CC1,-4%,0.49
Cc1n[nH]c(C(=O)Nc2ccccc2NC2CCC2)c1O,-12%,2.45
Cc1cc(-c2cc(-c3cnc(N(C)C)s3)c(C#N)c(N)n2)c(C)s1,-3%,0.38
CCc1ncc(C(=O)NCc2csc(N3CCOCC3)n2)cn1,26%,-3.62
C[C@H]1c2cccn2CCN1CC(=O)Nc1ccc2c(c1)CCC2,-3%,0.66
CC(C)(c1ccccc1)c1nnc(NC(=O)N2CCCC2)s1,-9%,1.74
Cc1cnc(NC(=O)c2ccccc2C(=O)c2ccc(Br)cc2)s1,-8%,0.98
O=C(Cn1cccn1)N1CCN(Cc2ccccc2)[C@@H]2CS(=O)(=O)C[C@@H]21,-7%,1.28
COc1ccc(OC)c(-n2c(Cc3ccc(O)cc3)n[nH]c2=O)c1,1%,-0.14
O=C1CCCN1CC(=O)N1CCC[C@@]2(CCC(=O)N(CCc3ccccn3)C2)C1,-4%,0.9
CC(=O)Nc1cccc(-n2ccnc2-c2c(C)n(C)n(-c3ccccc3)c2=O)c1,-14%,1.89
CCCc1cc(C(=O)N2CCNC[C@H]2C(=O)NCc2ccccn2)ccn1,1%,-0.22
O=C(O)c1ccc(Cn2cnc3ccccc32)o1,-4%,0.48
OCC#Cc1csc(-c2cn(C[C@H]3COc4ccccc4O3)nn2)c1,1%,-0.23
COc1ccc(-c2noc(-c3ccc(NCCCN4CCC(C)CC4)nn3)n2)cc1,10%,-1.17
COC1CCCCC1NC(=O)NCCCC1CCCCO1 (stereo unspecified),-6%,1.11
CC(=O)Nc1c(-c2ccccc2)c(C)nn1-c1ccc(C(=O)Nc2ccc3c(c2)OCO3)cc1,8%,-0.98
CC(C)c1ccc(C#N)c(NC[C@H]2CN(C)C(=O)CO2)n1,-7%,1.41

SMILES,% Inhibition,Z score
Cc1csc(CNC(=O)c2cnccn2)n1,0%,0.08
O=C(N1CCn2c1nc1ccccc12)C1(c2ccccc2)CCOCC1,-8%,0.91
COc1cc(CN2C[C@H](CO)[C@H](CN3C[C@@H](C)O[C@@H](C)C3)C2)ccc1F,-2%,0.44
Cn1cnn(CC(=O)Nc2nnc(-c3cccc4ccccc34)[nH]2)c1=O,2%,-0.25
CCN(CC(=O)NCc1ccccc1)C1CN(C(=O)OC(C)(C)C)C1,5%,-0.86
CCOc1ccncc1S(=O)(=O)N1CCN(Cc2ccncc2)CC1,-2%,0.25
Nc1cc2c(cc1N1CCOC1=O)OCO2,-5%,0.82
Cn1cc([C@@H]2CNCCN2C(=O)c2csc3ccccc23)cn1,-11%,1.48
O=C1[C@@H]2CCCN2[C@@H](c2ccc(Cl)cc2Cl)N1c1nccs1,-11%,1.87
Cc1ccc(S(=O)(=O)NCC2(C)CC(NS(=O)(=O)c3ccc(C)cc3)CC(C)(C)C2)cc1 (stereo unspecified),-33%,3.86
CC(C)Cn1ncc2c1NC(=O)C[C@@H]2c1cccnc1N1CCOCC1,-2%,0.31
CC(=O)c1cccc(N(CC(=O)Nc2ccc(S(=O)(=O)Nc3ccc(Cl)cc3Cl)cc2)S(C)(=O)=O)c1,3%,-0.45
CCc1nc(C)cc(N2CC[C@H]3[C@H](CCC(=O)N3CCCCO)C2)n1,-14%,1.29
COc1cccc(C(=O)Nc2cnc(N3CCCC3)nc2N(C)C)c1,-21%,2.7
CC1CCC(C(=O)O)C(C)N1Cc1noc2c1CCCC2 (stereo unspecified),1%,-0.08
COc1ccc(OC(C)C)c(NC(=O)CCNCC(F)(F)F)c1,-9%,0.87
CCN1CCC(N(C)C(=O)c2ncnc3ccsc23)CC1,-5%,0.83
OCc1csc(N2CCN(Cc3cc(C4CC4)n[nH]3)C[C@H](O)C2)n1,13%,-1.75
Fc1cc(Cl)cc(NCc2csc(-c3ccccn3)n2)c1,-9%,0.97
CCCNC(=O)N1CC[C@H](CCOc2ccccc2)C1,-1%,0.16
O=C(Nc1ccc(-c2cc3cc(F)ccc3[nH]2)cc1)Nc1cccc(F)c1,-2%,0.29

SMILES,% Inhibition,Z score
CCC(=O)N1CCN(c2ccc3ccc(F)cc3n2)CC1,-6%,1.15
COCCOc1ccnc(-c2noc([C@@H]3CCCN3Cc3ncc[nH]3)n2)c1,34%,-3.87
O=C(C[C@@H]1NC(=O)N(CCc2ccccc2)C1=O)Nc1cccc2[nH]ccc12,4%,-0.46
CCCCn1nnnc1CN1C(=O)NC2(CCC(C)CC2)C1=O (stereo unspecified),-15%,1.27
C[C@@H](CCC(=O)NCc1cscn1)N1CCOCC1,-3%,0.54
O=C(COc1ccccc1)NC[C@@H]1CCCN(C(=O)COc2ccccc2)C1,-6%,0.76
Cc1ccc(-c2nc3ccc(-c4cccc(C)c4)cn3c2CN2CCN(C(=O)c3ccco3)CC2)cc1,-14%,1.88
Cc1cc(C)n(-c2ccnc(N3CCC4(CC3)OCCO4)n2)n1,-16%,1.67
Cc1cc(C)c2nccc(N3CCN(C)[C@@H](CCO)C3)c2c1,-7%,1.01
Cc1cc(F)c(CC(=O)N[C@@H]2CS(=O)(=O)C[C@H]2O)cc1F,-6%,0.91
CC(C)c1nc(C(=O)Nc2[nH]c(=O)ncc2F)cs1,88%,-15.46
COc1ccc(Cn2nc(C)nc2CCn2cnnn2)cc1,-3%,0.59
CC[C@@](C)(CO)NC(=O)Nc1ccc(F)cc1OC(F)F,-7%,1.19
CCOCCS(=O)(=O)N1CC2(CCOCC2)[C@@H]1C1CC1,-10%,1.61
Cc1cc(C)nc(NS(=O)(=O)c2cc(C)oc2C)n1,-3%,0.35
CCc1ccc(-c2cc(C(F)(F)F)on2)cc1S(=O)(=O)N1CCN(CC)CC1,-9%,1.48
CCOc1ccc(C(=O)N[C@@H](C)c2c(C)n[nH]c2C)o1,-13%,1.69
Cc1ccc(N2CCC[C@@]3(CCC(=O)N(Cc4cccnc4)C3)C2)nn1,-9%,1.24
Cc1cc(C)nc(-c2cc(NCc3cccnc3)nc3[nH]ccc23)n1,-9%,1.18
C=CCOc1ccc(CN(C[C@H]2CCCO2)C(=O)c2c(C)noc2C)cc1OC,-6%,0.72
O=S(=O)(Cc1cccc2nsnc12)N[C@@H]1CCCOC1,-5%,1.07

SMILES,% Inhibition,Z score
CC1=C(C(=O)NCc2cnc3c(c2)CCC3)[C@H](c2cccc(C)c2)NC(=O)N1,-20%,2.66
Cc1noc([C@H]2OCC[C@H]2NC(=O)c2ccccc2C2(C)CC2)n1,-4%,0.7
O=C([C@@H]1CCCc2[nH]ncc21)N1CC=C(c2c[nH]c3ccccc23)CC1,-6%,0.75
CN1CC[C@H](CN(C)Cc2ccc3cc(O)ccc3c2)C1,56%,-7.71
Cn1cc(CN(Cc2ccccc2OCc2c(F)cccc2Cl)C2CC2)cn1,-7%,0.91
C[C@@H]1C[C@H](Nc2ccccc2)c2ccccc2N1C(=O)Cc1cccc2ccccc12,-6%,0.82
Cc1cc(C(C)C)nc(N2CCN(C(=O)CCn3cncn3)CC2)n1,-15%,2.34
CC(C)C(=O)N1CCN(C(=O)Cc2cccc(O)c2)[C@@H]2CS(=O)(=O)C[C@@H]21,8%,-1.16
COc1ccc2c(C)c(C(=O)N3CCC(Nc4ncccn4)CC3)oc2c1,0%,0.04
CCCN1C(=O)c2c(C(=O)Nc3cccc(Cl)c3)ncn2C[C@@]1(C)C(=O)NC1CCCC1,-15%,2.87
CCOc1cc(C(=O)N(Cc2cccnc2)Cc2ccco2)cc(OCC)c1OCC,6%,-0.81
COc1ccc(N2C(=O)c3cc(C)nn3C[C@@]2(C)C(=O)NCc2ccc(F)cc2)cc1,-4%,0.7
Cc1cnc(NCCc2n[nH]c(N)n2)nc1N(C)C,-5%,0.68
CN(CCC1CCCC1)c1cccc(CO)c1,-14%,1.77
COc1ccc(NC(=O)[C@@H]2CCCC[C@@H]2C(=O)N2CCCC2)c2nonc12,0%,-0.03
CNc1ccnc(N2CCN(Cc3cccnc3N)C[C@H](O)C2)n1,11%,-1.49
Cc1cccc(C(=O)Nc2ccccc2N2CCOCC2)n1,-4%,0.49
COC(=O)CC[C@@H]1CN(Cc2ccncc2)CC[C@@H]1N1CCN(c2cccc(C(F)(F)F)c2)CC1,-25%,2.31
CCCC1CCC(CN(C)CC(=O)O)CC1 (stereo unspecified),-5%,0.42
Cc1nc(CCNC(=O)N2C[C@H]3C[C@H](O)[C@@H](O)C[C@H]3C2)sc1Cl,5%,-0.55
